# Test results published in the supplement of paper PMC8728848.
# Some of the results follow.
# B1: SP15308A-bot-339-19-339 (Bacteroides ovatus) (protein)
# chain: ACNNEWEDEQYEQYISFKSPIPAGGEGVTDIYVRYKEDGKVTYRLPIVVSGSTTNTLDREVHIAVDKDTLETLNIERFSIHRPGLWYTALEEDKYDFPKTVHISAGSSVEQLNIDFNLQGIDMLEKWVLPLTIVDDPSYNYKSHPRKNYAKALLRVIPFNNYSGSYTSSAMKVYTYINGKPDTNARTANKRTGYVINDNTVFFYAGLISEDLDKEVREKYKINVHFNEDGTLHMEQGDPTNKMKFELIGTPTYSKTSVMDATRPYLERRYVQIMFEYDFEDFSYGGNGVDVIPIKYKVEGSMTLQRNINTQIPDEDQQIEW
# Experiments:
# Assay in all cases: glycan array binding signal (z-score within array); higher = stronger binding
# Conditions in all cases: glycan notation: IUPAC condensed, linker removed
# [1] = target: Neu5Ac(a2-3)Gal(b1-4)GlcNAc(b1-6)GalNAc
# Method in brief: (§1)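 Glycan array binding is given as a within-array Z-score, which can be read as non-binding when negative. The arrays, 3228 of them, came from the Consortium for Functional Glycomics database and were retained only where the protein sequence was available. Z-scores were averaged across arrays of the same protein sequence at different concentrations or buffers and across linkers.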
# [2] = target: Neu5Ac(a2-3)Gal(b1-4)GlcNAc(b1-6)[Gal(b1-3)]GalNAc
# Method in brief: as §1
# [3] = target: Neu5Ac(a2-3)Gal(b1-4)GlcNAc(b1-6)[Neu5Ac(a2-3)Gal(b1-3)]GalNAc
# Method in brief: as §1
# [4] = target: Neu5Ac(a2-3)Gal(b1-4)GlcNAc6S
# Method in brief: as §1
# [5] = target: Neu5Ac(a2-3)Gal(b1-4)[Fuc(a1-3)]GlcNAc
# Method in brief: as §1
# [6] = target: Neu5Ac(a2-3)Gal(b1-4)[Fuc(a1-3)]GlcNAc(b1-2)Man
# Method in brief: as §1
# [7] = target: Neu5Ac(a2-3)Gal(b1-4)[Fuc(a1-3)]GlcNAc(b1-3)Gal
# Method in brief: as §1
# [8] = target: Neu5Ac(a2-3)Gal(b1-4)[Fuc(a1-3)]GlcNAc(b1-3)Gal(b1-4)GlcNAc
# Method in brief: as §1
# [9] = target: Neu5Ac(a2-3)Gal(b1-4)[Fuc(a1-3)]GlcNAc(b1-3)Gal(b1-4)[Fuc(a1-3)]GlcNAc(b1-3)Gal(b1-4)[Fuc(a1-3)]GlcNAc
# Method in brief: as §1
# [10] = target: Neu5Ac(a2-3)Gal(b1-4)[Fuc(a1-3)]GlcNAc(b1-3)GalNAc
# Method in brief: as §1
# [11] = target: Neu5Ac(a2-3)Gal(b1-4)[Fuc(a1-3)]GlcNAc(b1-6)[Gal(b1-3)]GalNAc
# Method in brief: as §1
# [12] = target: Neu5Ac(a2-3)Gal(b1-4)[Fuc(a1-3)]GlcNAc(b1-6)[Neu5Ac(a2-3)Gal(b1-3)]GalNAc
# Method in brief: as §1
# [13] = target: Neu5Ac(a2-3)Gal(b1-4)[Fuc(a1-3)]GlcNAc6S
# Method in brief: as §1
# [14] = target: Neu5Ac(a2-3)Gal6S(b1-4)GlcNAc
# Method in brief: as §1
# [15] = target: Neu5Ac(a2-3)Gal6S(b1-4)[Fuc(a1-3)]GlcNAc
# Method in brief: as §1
# Neu5Ac(a2-3)GalNAc = target: Neu5Ac(a2-3)GalNAc
# Method in brief: as §1
# [16] = target: Neu5Ac(a2-3)GalNAc(b1-4)GlcNAc
# Method in brief: as §1
# [17] = target: Neu5Ac(a2-3)[GalNAc(b1-4)]Gal(b1-4)Glc
# Method in brief: as §1
# [18] = target: Neu5Ac(a2-3)[GalNAc(b1-4)]Gal(b1-4)GlcNAc
# Method in brief: as §1
# [19] = target: Neu5Ac(a2-3)[GalNAc(b1-4)]Gal(b1-4)GlcNAc(b1-3)GalNAc
# Method in brief: as §1
# [20] = target: Neu5Ac(a2-3)[Neu5Ac(a2-6)]GalNAc
# Method in brief: as §1
# Neu5Ac(a2-6)Gal = target: Neu5Ac(a2-6)Gal
# Method in brief: as §1
# [21] = target: Neu5Ac(a2-6)Gal(b1-3)GlcNAc(b1-3)[Gal(b1-4)GlcNAc(b1-6)]Gal(b1-4)Glc
# Method in brief: as §1
# Neu5Ac(a2-6)Gal(b1-4)Glc = target: Neu5Ac(a2-6)Gal(b1-4)Glc
# Method in brief: as §1
# [22] = target: Neu5Ac(a2-6)Gal(b1-4)GlcNAc
# Method in brief: as §1
# [23] = target: Neu5Ac(a2-6)Gal(b1-4)GlcNAc(b1-2)Man
# Method in brief: as §1
# [24] = target: Neu5Ac(a2-6)Gal(b1-4)GlcNAc(b1-2)Man(a1-3)Man(b1-4)GlcNAc(b1-4)GlcNAc
# Method in brief: as §1
# [25] = target: Neu5Ac(a2-6)Gal(b1-4)GlcNAc(b1-2)Man(a1-3)[Gal(b1-4)GlcNAc(b1-2)Man(a1-6)]Man(b1-4)GlcNAc(b1-4)GlcNAc
# Method in brief: as §1
# [26] = target: Neu5Ac(a2-6)Gal(b1-4)GlcNAc(b1-2)Man(a1-3)[GlcNAc(b1-2)Man(a1-6)]Man(b1-4)GlcNAc(b1-4)GlcNAc
# Method in brief: as §1
# [27] = target: Neu5Ac(a2-6)Gal(b1-4)GlcNAc(b1-2)Man(a1-3)[GlcNAc(b1-4)][Neu5Ac(a2-6)Gal(b1-4)GlcNAc(b1-2)Man(a1-6)]Man(b1-4)GlcNAc(b1-4)GlcNAc
# Method in brief: as §1
# [28] = target: Neu5Ac(a2-6)Gal(b1-4)GlcNAc(b1-2)Man(a1-3)[Man(a1-6)]Man(b1-4)GlcNAc(b1-4)GlcNAc
# Method in brief: as §1
# [29] = target: Neu5Ac(a2-6)Gal(b1-4)GlcNAc(b1-2)Man(a1-3)[Neu5Ac(a2-3)Gal(b1-4)GlcNAc(b1-2)Man(a1-6)]Man(b1-4)GlcNAc(b1-4)GlcNAc
# Method in brief: as §1
# [30] = target: Neu5Ac(a2-6)Gal(b1-4)GlcNAc(b1-2)Man(a1-3)[Neu5Ac(a2-6)Gal(b1-4)GlcNAc(b1-2)Man(a1-6)]Man(b1-4)GlcNAc(b1-4)GlcNAc
# Method in brief: as §1
# [31] = target: Neu5Ac(a2-6)Gal(b1-4)GlcNAc(b1-2)Man(a1-3)[Neu5Ac(a2-6)Gal(b1-4)GlcNAc(b1-2)Man(a1-6)]Man(b1-4)GlcNAc(b1-4)[Fuc(a1-6)]GlcNAc
# Method in brief: as §1
# [32] = target: Neu5Ac(a2-6)Gal(b1-4)GlcNAc(b1-2)Man(a1-6)Man(b1-4)GlcNAc(b1-4)GlcNAc
# Method in brief: as §1
# [33] = target: Neu5Ac(a2-6)Gal(b1-4)GlcNAc(b1-2)Man(a1-6)[Gal(b1-4)GlcNAc(b1-2)Man(a1-3)]Man(b1-4)GlcNAc(b1-4)GlcNAc
# Method in brief: as §1
# [34] = target: Neu5Ac(a2-6)Gal(b1-4)GlcNAc(b1-2)Man(a1-6)[GlcNAc(b1-2)Man(a1-3)]Man(b1-4)GlcNAc(b1-4)GlcNAc
# Method in brief: as §1
# [35] = target: Neu5Ac(a2-6)Gal(b1-4)GlcNAc(b1-2)Man(a1-6)[Man(a1-3)]Man(b1-4)GlcNAc(b1-4)GlcNAc
# Method in brief: as §1
# [36] = target: Neu5Ac(a2-6)Gal(b1-4)GlcNAc(b1-2)[Neu5Ac(a2-6)Gal(b1-4)GlcNAc(b1-4)]Man(a1-3)[GlcNAc(b1-4)][Neu5Ac(a2-6)Gal(b1-4)GlcNAc(b1-2)[Neu5Ac(a2-6)Gal(b1-4)GlcNAc(b1-6)]Man(a1-6)]Man(b1-4)GlcNAc(b1-4)GlcNAc
# Method in brief: as §1
# [37] = target: Neu5Ac(a2-6)Gal(b1-4)GlcNAc(b1-2)[Neu5Ac(a2-6)Gal(b1-4)GlcNAc(b1-4)]Man(a1-3)[GlcNAc(b1-4)][Neu5Ac(a2-6)Gal(b1-4)GlcNAc(b1-4)Man(a1-6)]Man(b1-4)GlcNAc(b1-4)GlcNAc
# Method in brief: as §1
# [38] = target: Neu5Ac(a2-6)Gal(b1-4)GlcNAc(b1-2)[Neu5Ac(a2-6)Gal(b1-4)GlcNAc(b1-6)]Man(a1-6)[Neu5Ac(a2-6)Gal(b1-4)GlcNAc(b1-2)Man(a1-3)][GlcNAc(b1-4)]Man(b1-4)GlcNAc(b1-4)GlcNAc
# Method in brief: as §1
# [39] = target: Neu5Ac(a2-6)Gal(b1-4)GlcNAc(b1-3)Gal(b1-3)GlcNAc
# Method in brief: as §1
# [40] = target: Neu5Ac(a2-6)Gal(b1-4)GlcNAc(b1-3)Gal(b1-4)GlcNAc
# Method in brief: as §1
# [41] = target: Neu5Ac(a2-6)Gal(b1-4)GlcNAc(b1-3)Gal(b1-4)GlcNAc(b1-2)Man(a1-3)[Neu5Ac(a2-6)Gal(b1-4)GlcNAc(b1-3)Gal(b1-4)GlcNAc(b1-2)Man(a1-6)]GalNAc
# Method in brief: as §1
# [42] = target: Neu5Ac(a2-6)Gal(b1-4)GlcNAc(b1-3)Gal(b1-4)GlcNAc(b1-3)Gal(b1-4)GlcNAc
# Method in brief: as §1
# [43] = target: Neu5Ac(a2-6)Gal(b1-4)GlcNAc(b1-3)Gal(b1-4)GlcNAc(b1-3)Gal(b1-4)GlcNAc(b1-2)Man(a1-3)[Neu5Ac(a2-6)Gal(b1-4)GlcNAc(b1-3)Gal(b1-4)GlcNAc(b1-3)Gal(b1-4)GlcNAc(b1-2)Man(a1-6)]GalNAc
# Method in brief: as §1
binder,measurement,setting,value
B1,glycan array binding signal (z-score),[1],-0.192
same,glycan array binding signal (z-score),[2],-0.225
same,glycan array binding signal (z-score),[3],-0.543
same,glycan array binding signal (z-score),[4],-0.405
same,glycan array binding signal (z-score),[5],-0.247
same,glycan array binding signal (z-score),[6],0.057
same,glycan array binding signal (z-score),[7],-0.135
same,glycan array binding signal (z-score),[8],0.266
same,glycan array binding signal (z-score),[9],-0.053
same,glycan array binding signal (z-score),[10],1.76
same,glycan array binding signal (z-score),[11],0.512
same,glycan array binding signal (z-score),[12],0.537
same,glycan array binding signal (z-score),[13],-0.15
same,glycan array binding signal (z-score),[14],-0.364
same,glycan array binding signal (z-score),[15],-0.363
same,glycan array binding signal (z-score),Neu5Ac(a2-3)GalNAc,0.234
same,glycan array binding signal (z-score),[16],-0.166
same,glycan array binding signal (z-score),[17],-0.539
same,glycan array binding signal (z-score),[18],0.103
same,glycan array binding signal (z-score),[19],-0.482
same,glycan array binding signal (z-score),[20],0.465
same,glycan array binding signal (z-score),Neu5Ac(a2-6)Gal,0.1
same,glycan array binding signal (z-score),[21],-0.503
same,glycan array binding signal (z-score),Neu5Ac(a2-6)Gal(b1-4)Glc,-0.226
same,glycan array binding signal (z-score),[22],0.493
same,glycan array binding signal (z-score),[23],-0.623
same,glycan array binding signal (z-score),[24],-0.385
same,glycan array binding signal (z-score),[25],-0.154
same,glycan array binding signal (z-score),[26],-0.135
same,glycan array binding signal (z-score),[27],-0.08
same,glycan array binding signal (z-score),[28],-0.362
same,glycan array binding signal (z-score),[29],-0.229
same,glycan array binding signal (z-score),[30],-0.265
same,glycan array binding signal (z-score),[31],0.106
same,glycan array binding signal (z-score),[32],-0.067
same,glycan array binding signal (z-score),[33],-0.141
same,glycan array binding signal (z-score),[34],-0.499
same,glycan array binding signal (z-score),[35],0.202
same,glycan array binding signal (z-score),[36],0.739
same,glycan array binding signal (z-score),[37],-0.509
same,glycan array binding signal (z-score),[38],-0.263
same,glycan array binding signal (z-score),[39],0.259
same,glycan array binding signal (z-score),[40],-0.68
same,glycan array binding signal (z-score),[41],0.228
same,glycan array binding signal (z-score),[42],-0.319
same,glycan array binding signal (z-score),[43],-0.157
